# No constants are given. Whether binding was seen depends on the method and setting. Binding seen in cells or lysates may run through a third protein. Some results given as binding are weak or reduced against the parent protein; the word gives no strength. Tags and fused reporters may be left off the sequences shown.
# T1: HA-MYB75 (Arabidopsis thaliana) (UniProt Q9FE25)
# T1 sequence: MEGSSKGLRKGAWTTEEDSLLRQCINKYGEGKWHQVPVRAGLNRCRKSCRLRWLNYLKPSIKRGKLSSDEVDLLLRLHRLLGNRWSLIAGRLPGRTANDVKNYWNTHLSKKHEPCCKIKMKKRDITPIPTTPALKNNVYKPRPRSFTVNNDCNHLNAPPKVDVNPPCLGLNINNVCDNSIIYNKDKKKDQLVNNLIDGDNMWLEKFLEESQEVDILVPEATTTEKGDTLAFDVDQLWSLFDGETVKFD
# T2: HA-TPL (Arabidopsis thaliana) (UniProt Q94AI7)
# T2 sequence: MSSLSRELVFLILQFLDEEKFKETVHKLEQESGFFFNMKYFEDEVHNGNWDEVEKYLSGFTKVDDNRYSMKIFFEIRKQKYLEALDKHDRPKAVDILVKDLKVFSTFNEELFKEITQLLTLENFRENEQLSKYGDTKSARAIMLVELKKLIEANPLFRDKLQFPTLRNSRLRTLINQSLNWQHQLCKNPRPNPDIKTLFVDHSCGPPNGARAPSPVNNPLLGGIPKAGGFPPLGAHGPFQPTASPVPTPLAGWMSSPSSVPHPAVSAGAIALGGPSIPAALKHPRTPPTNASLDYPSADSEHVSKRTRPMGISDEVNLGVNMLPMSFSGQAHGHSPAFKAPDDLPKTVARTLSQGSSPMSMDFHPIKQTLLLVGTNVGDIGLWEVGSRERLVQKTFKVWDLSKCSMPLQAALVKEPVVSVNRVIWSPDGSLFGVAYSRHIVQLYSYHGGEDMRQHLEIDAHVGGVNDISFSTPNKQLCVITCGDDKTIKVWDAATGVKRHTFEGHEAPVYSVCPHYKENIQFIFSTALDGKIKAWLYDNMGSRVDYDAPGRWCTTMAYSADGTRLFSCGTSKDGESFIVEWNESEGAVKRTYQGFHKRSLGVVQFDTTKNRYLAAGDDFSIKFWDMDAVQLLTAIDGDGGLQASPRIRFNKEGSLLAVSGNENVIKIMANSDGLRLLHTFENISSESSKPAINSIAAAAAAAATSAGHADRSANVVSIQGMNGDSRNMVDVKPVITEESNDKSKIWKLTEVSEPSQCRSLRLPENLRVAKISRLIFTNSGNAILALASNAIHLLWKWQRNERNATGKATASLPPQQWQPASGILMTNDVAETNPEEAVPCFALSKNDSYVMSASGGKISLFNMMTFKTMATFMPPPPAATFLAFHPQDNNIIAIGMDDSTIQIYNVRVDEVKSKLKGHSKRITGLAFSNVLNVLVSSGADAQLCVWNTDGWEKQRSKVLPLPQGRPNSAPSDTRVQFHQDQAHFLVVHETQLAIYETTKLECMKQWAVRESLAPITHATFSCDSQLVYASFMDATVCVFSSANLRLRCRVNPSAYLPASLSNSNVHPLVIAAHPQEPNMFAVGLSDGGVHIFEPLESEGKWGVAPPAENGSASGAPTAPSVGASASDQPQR
# T3: MBP-EGL3 (Arabidopsis thaliana, UniProt Q9CAD0 1-596)
# T3 construct: EGL3, Arabidopsis thaliana, At1g63650; pMAL-C2X
# T3 sequence (looked up): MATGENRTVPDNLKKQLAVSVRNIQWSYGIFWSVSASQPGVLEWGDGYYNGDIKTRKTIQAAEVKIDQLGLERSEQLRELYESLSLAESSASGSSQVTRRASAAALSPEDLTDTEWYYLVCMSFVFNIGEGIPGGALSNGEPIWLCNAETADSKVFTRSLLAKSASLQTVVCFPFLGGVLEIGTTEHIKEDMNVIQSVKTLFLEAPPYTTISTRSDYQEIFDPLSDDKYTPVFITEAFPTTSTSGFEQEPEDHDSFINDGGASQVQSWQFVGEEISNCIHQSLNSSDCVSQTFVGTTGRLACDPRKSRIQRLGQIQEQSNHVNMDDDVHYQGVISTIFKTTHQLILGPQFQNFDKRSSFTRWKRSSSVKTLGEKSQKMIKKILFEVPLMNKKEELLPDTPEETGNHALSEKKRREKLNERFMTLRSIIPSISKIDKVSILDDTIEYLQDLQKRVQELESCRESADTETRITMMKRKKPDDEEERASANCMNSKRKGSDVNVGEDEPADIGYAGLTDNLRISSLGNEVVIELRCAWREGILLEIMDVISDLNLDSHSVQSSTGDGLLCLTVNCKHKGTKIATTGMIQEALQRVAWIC
# T4: MBP-TT8 (Arabidopsis thaliana, UniProt Q9FT81 1-518)
# T4 construct: TT8, Arabidopsis thaliana, At4g09820; pMAL-C2X
# T4 sequence (looked up): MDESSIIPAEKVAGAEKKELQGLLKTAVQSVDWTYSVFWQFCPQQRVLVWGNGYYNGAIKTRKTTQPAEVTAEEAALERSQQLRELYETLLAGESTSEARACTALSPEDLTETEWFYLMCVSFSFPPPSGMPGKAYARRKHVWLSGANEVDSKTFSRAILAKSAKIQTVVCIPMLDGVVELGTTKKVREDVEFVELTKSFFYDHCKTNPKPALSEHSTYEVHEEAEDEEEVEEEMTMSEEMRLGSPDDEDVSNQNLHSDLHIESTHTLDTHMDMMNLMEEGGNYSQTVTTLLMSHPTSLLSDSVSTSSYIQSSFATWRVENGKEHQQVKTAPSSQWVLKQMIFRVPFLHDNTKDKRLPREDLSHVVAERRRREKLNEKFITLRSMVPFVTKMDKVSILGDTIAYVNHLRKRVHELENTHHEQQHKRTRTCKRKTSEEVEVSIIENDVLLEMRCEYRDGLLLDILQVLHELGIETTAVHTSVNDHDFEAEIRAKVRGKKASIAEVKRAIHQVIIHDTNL
# Assays:
# [1] = target: T1, HA-MYB75 (Arabidopsis thaliana); assay: co-IP; extracts of transgenic Arabidopsis plants; anti-HA agarose, 3 h, 4 C; 150 mM NaCl, 50 mM Tris-HCl pH 7.5, 0.1% NP-40; anti-HA and anti-GFP blots
# [2] = target: T2, HA-TPL (Arabidopsis thaliana); assay: as above
# [3] = target: T3, MBP-EGL3; assay: pull-down; semi-in vivo: MBP-TT8 or MBP-EGL3 beads added to lysate of Col-0 or 35S:HAT1 protoplasts expressing HA-MYB75; 4 C, 3 h; anti-HA blot; only the target purified
# [4] = target: T4, MBP-TT8; assay: as above
Binder,binding [1],binding [2],binding [3],binding [4]
"HAT1-GFP (protein, UniProt P46600 1-282) MMMGKEDLGLSLSLGFAQNHPLQLNLKPTSSPMSNLQMFPWNQTLVSSSDQQKQQFLRKIDVNSLPTTVDLEEETGVSSPNSTISSTVSGKRRSTEREGTSGGGCGDDLDITLDRSSSRGTSDEEEDYGGETCRKKLRLSKDQSAVLEDTFKEHNTLNPKQKLALAKKLGLTARQVEVWFQNRRARTKLKQTEVDCEYLKRCVEKLTEENRRLEKEAAELRALKLSPRLYGQMSPPTTLLMCPSCERVAGPSSSNHNQRSVSLSPWLQMAHGSTFDVMRPRS",binds,binds,–,–
"HA-MYB75 (protein, UniProt Q9FE25 1-248) MEGSSKGLRKGAWTTEEDSLLRQCINKYGEGKWHQVPVRAGLNRCRKSCRLRWLNYLKPSIKRGKLSSDEVDLLLRLHRLLGNRWSLIAGRLPGRTANDVKNYWNTHLSKKHEPCCKIKMKKRDITPIPTTPALKNNVYKPRPRSFTVNNDCNHLNAPPKVDVNPPCLGLNINNVCDNSIIYNKDKKKDQLVNNLIDGDNMWLEKFLEESQEVDILVPEATTTEKGDTLAFDVDQLWSLFDGETVKFD",–,–,binds,binds
